# Reference: PubChem BioAssay AID686978 (National Center for Advancing Translational Sciences (NCATS), 2013)
# Out of some 420,000 compounds screened, about 64,000 (15%) were called active. The inconclusive results got no clear call from the source; some entries with a clear call stand among them for comparison. The call rests on the fitted dose curve; in most records, active means well fitted inhibition curve with a large enough effect; inconclusive means small, poorly fitted or top-dose-only effect; inactive means flat fitted curve, though single readings scatter. Potencies of inconclusive entries are left out as doubtful fits.
# Assay: qHTS for Inhibitors of human tyrosyl-DNA phosphodiesterase 1 (TDP1): qHTS in cells in absence of CPT; further: nearly all actives have a fitted effect of over 55% in size
# Conditions: DT40 Tdp1-/- hTDP1 cells, no CPT, ATP luminescence, 48 h; activity change, negative = growth inhibition: at 46.2 µM (top of the series) unless noted
# Method in brief: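 Stably hTDP1-transfected Tdp1-null chicken DT40 cells were treated with library compounds minus camptothecin and grown for at least 48 hr at 37 °C, after which cellular ATP was quantified by luminescence.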
# On the % scale 0 is the no-effect control and ±100 the full control effect; potency means the concentration at half of the fitted maximal effect; tags describe the fitted curve by direction and shape.
Compound,Potency,"activity change, negative = growth inhibition"
Cc1cc(C)c(C(=O)CSc2n[nH]c(=O)n2C2CC2)cc1C,active: 20 µM,
O=c1ccn(Cc2ccccc2)c(SCc2ccccc2)n1,"inconclusive [inhibitor, partial curve, poor fit]",
O=C(CSc1nc(Cc2ccccc2)nc2ccccc12)Nc1nc2c(s1)CCCC2,"inconclusive [inhibitor, single point]",
COc1cc2ccccc2cc1C(=O)Nc1ccc2oc(-c3ccccc3)nc2c1,active: 16.4 µM,
Cc1ccc(CN=c2c([N+](=O)[O-])nn(-c3ccc(Cl)cc3)n2O)cc1,"inconclusive [inhibitor, partial curve]",
Cc1cc(CSc2ccccc2)ccc1NC(=O)c1ccc(C)c([N+](=O)[O-])c1,active: 18.4 µM,
Cc1cccc(N2CCN(C(=O)/C=C/c3ccco3)CC2)c1C,"inconclusive [inhibitor, single point]",
Cc1ccc(-c2cc(-c3ccc(F)cc3)n[nH]2)c(O)c1,"inconclusive [inhibitor, single point]",
CCOc1cc(N2CCOCC2)c(OCC)cc1NC(=O)Cn1nc(C)c([N+](=O)[O-])c1C,,inconclusive: -31% [inhibitor]
CC(C)(C)CCN1CCC(CN2CCNC2=S)CC1,inactive,
OC(COc1ccccc1)CN1CCN(c2cccc(Cl)c2)CC1 (centres undefined),"inconclusive [inhibitor, partial curve, poor fit]",
Cc1ccc(OCC(=O)N/N=C/c2ccccc2)c([N+](=O)[O-])c1,inactive,
COc1ccc2[nH]cc(CCNS(=O)(=O)c3ccccc3)c2c1,"inconclusive [inhibitor, single point]",
CC1CCCCN1CCCNC(=O)c1nn(C)c2c1CSc1ccccc1-2 (centres undefined),"inconclusive [inhibitor, single point]",
Cc1c(OCC(=O)NCC(O)c2ccccc2)ccc2c3c(c(=O)oc12)CCCC3 (centres undefined),"inconclusive [inhibitor, single point]",
Cn1c(N)c(C(=O)COC(=O)c2cc3ccccc3cc2O)c(=O)n(C)c1=O,inactive,
CCC(=O)NC(=S)Nc1cccc(NC(=O)c2ccccc2Cl)c1,"inconclusive [inhibitor, single point]",
COc1cc(NC(=S)NC2CC2)c(OC)cc1Cl,"inconclusive [inhibitor, single point]",
Cc1ccccc1CNC(=O)CCC(=O)N1CC2CCCN2c2ccccc21 (centres undefined),active: 23.1 µM,
Cc1cc(O)c(-c2ccnc3cc(-c4ccccc4)nn23)cc1Cl,"inconclusive [inhibitor, single point]",
Cn1cc([N+](=O)[O-])c(C(=O)Nc2cc(Oc3cccnc3)cc([N+](=O)[O-])c2)n1,,inconclusive: -30.1% [inhibitor]
Cc1nc(N2CCN(Cc3ccccc3)CC2)c(C#N)c2c1COC(C)(C)C2,active: 25.9 µM,

Compound,Potency,"activity change, negative = growth inhibition"
Cc1nn(-c2cc(N3CCNCC3)ccc2[N+](=O)[O-])c(=O)c2ccccc12,inactive,
CCCN(CC(=O)Nc1ccccc1C)C(=O)C1CCN(S(=O)(=O)c2ccc(C)c(C)c2)CC1,"inconclusive [inhibitor, single point]",
CC(=O)NCCC(=O)Nc1cccc(S(=O)(=O)N(C)c2ccccc2)c1,inactive,
COc1ccccc1CNc1ncnc2c1c(-c1ccccc1)cn2-c1cccc(C)c1,inactive,
CN(C)c1cccc(C(=O)OCC(=O)NC2CCCC2)c1,inactive,
CN(C)S(=O)(=O)c1ccc(Cl)c(NC(=O)CN2CCCCCC2)c1,"inconclusive [inhibitor, single point]",
NNc1nc(Nc2ccc([N+](=O)[O-])cc2)nc(N2CCCCCC2)n1,"inconclusive [inhibitor, single point]",
Cc1[nH]n(C(C)(C)C)c(=O)c1Sc1ccc(Cl)cc1,"inconclusive [inhibitor, partial curve, poor fit]",
O=C(CC(c1ccccc1)c1ccccc1)Nc1ccncc1,"inconclusive [inhibitor, single point]",
CC1CCN(CCCNC(=O)c2cc3c(Cl)nc4ccccc4c3s2)CC1,"inconclusive [inhibitor, single point]",
CC(C)(C)c1ccc2c(c1)OC(C(=O)N/N=C\c1ccc[nH]1)CO2 (centres undefined),,inconclusive: -30.2% [inhibitor]
CC(O)c1nc2ccccc2n1CCCOc1ccccc1 (centres undefined),active: 16.4 µM,
COc1cccc(-c2noc(C3CCCN(C(=O)c4ccccc4OC)C3)n2)c1 (centres undefined),"inconclusive [inhibitor, single point]",
O=C(Cc1ccc(Cl)cc1)NCC(=O)N1CCCCCC1,inactive,
O=C1c2ccc(-c3ccc(F)cc3OCc3ccccc3)cc2S(=O)(=O)c2cccc(C(=O)N3CCN(c4ncc(Br)cn4)CC3)c21,"inconclusive [inhibitor, single point]",
COc1cccc(Cn2c(CNS(=O)(=O)c3ccc4c(c3)CCCC4)nc3cccnc32)c1,"inconclusive [inhibitor, single point]",
Cc1ccc(NC(=O)c2cccc(S(=O)(=O)N3CCc4ccccc4C3)c2)nc1,"inconclusive [inhibitor, single point]",
C#CCOCCOCCOCCNc1nc(N2CCN(C(=O)Cn3cc(CCCN=C(N)N)nn3)CC2)nc(N2CCN(C(=O)Cn3cc(CC(C)O)nn3)CC2)n1 (centres undefined),inactive,
Cc1nnn(-c2nonc2N)c1C(=O)NNC(=O)c1ccc(Cl)c(Cl)c1,"inconclusive [inhibitor, partial curve]",
Cc1csc[n+]1CC(=O)c1ccc(I)cc1,"inconclusive [inhibitor, single point]",
O=C(COC(=O)c1ccco1)NC(c1ccccc1)c1ccccc1,"inconclusive [inhibitor, full curve, poor fit]",
CCN1CCN(C(=O)CN(c2ccc(F)cc2)S(=O)(=O)c2ccc(OC)c(OC)c2)CC1,inactive,
